Source: patent publication US20190367516A1 (Bayer Pharma Aktiengesellschaft, priority 2015, published 2019)

Target: T1, human M2 receptor (Homo sapiens, UniProt P08172)
T1 sequence (P08172 1-466): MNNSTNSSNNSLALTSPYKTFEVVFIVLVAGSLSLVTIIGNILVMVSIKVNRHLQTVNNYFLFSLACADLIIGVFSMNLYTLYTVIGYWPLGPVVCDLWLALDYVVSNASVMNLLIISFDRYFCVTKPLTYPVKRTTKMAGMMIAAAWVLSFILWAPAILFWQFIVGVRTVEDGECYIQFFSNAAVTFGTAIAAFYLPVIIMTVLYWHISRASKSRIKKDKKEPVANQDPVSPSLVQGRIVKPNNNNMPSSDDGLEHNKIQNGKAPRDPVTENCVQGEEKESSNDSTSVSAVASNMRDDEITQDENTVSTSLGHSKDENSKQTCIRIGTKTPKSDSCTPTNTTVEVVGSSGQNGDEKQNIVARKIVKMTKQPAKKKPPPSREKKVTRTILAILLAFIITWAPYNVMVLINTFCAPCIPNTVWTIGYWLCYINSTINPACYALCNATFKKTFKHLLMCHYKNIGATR
Settings: boosting of the acetylcholine effect at an EC20 acetylcholine concentration; for Emax: read-out: Efficiency, M2-GIRK1/4 activation test; for Efficiency: M2-GIRK1/4 activation test

Emax [%]	Efficiency [%]	SMILES
98.3	–	CC(NC(=O)c1cn(-c2ccc(F)cc2F)c2nc(N3C[C@@H](O)CC3=O)ccc2c1=O)c1ccccc1F (stereo partly drawn) [Example 235, 1-(2,4-Difluorophenyl)-N-[1-(2-fluorophenyl)ethyl]-7-[(4S)-4-hydroxy-2-oxopyrrolidin-1-yl]-4-oxo-1,4-dihydro-1,8-naphthyridine-3-carboxamide]
92.5	–	CCC(NC(=O)c1cn(-c2ccccc2F)c2nc(N(C)C)ccc2c1=O)C(F)(F)F (racemic) [Example 204, rac-7-(Dimethylamino)-1-(2-fluorophenyl)-4-oxo-N-[1,1,1-trifluorobutan-2-yl]-1,4-dihydro-1,8-naphthyridine-3-carboxamide]
100	–	CC[C@H](NC(=O)c1cn(-c2c(F)cc(F)cc2Cl)c2nc(N3CCNC3=O)ccc2c1=O)C(F)(F)F [Example 340, 1-(2-Chloro-4,6-difluorophenyl)-4-oxo-7-(2-oxoimidazolidin-1-yl)-N-[(2S)-1,1,1-trifluorobutan-2-yl]-1,4-dihydro-1,8-naphthyridine-3-carboxamide]
100	–	CC(C)(C)[C@@H](NC(=O)c1cn(-c2c(F)cc(F)cc2F)c2nc(N3C[C@@H](O)CC3=O)ccc2c1=O)C(F)(F)F [Example 357, 7-[(4S)-4-Hydroxy-2-oxopyrrolidin-1-yl]-4-oxo-N-[(2R)-1,1,1-trifluoro-3,3-dimethylbutan-2-yl]-1-(2,4,6-trifluorophenyl)-1,4-dihydro-1,8-naphthyridine-3-carboxamide]
94.5	–	CC[C@@H](NC(=O)c1cn(-c2c(F)cccc2Cl)c2nc(N3CC4CC4(O)C3)ccc2c1=O)C(F)(F)F (mixture of isomers) [Example 310, 1-(2-Chloro-6-fluorophenyl)-7-[1-hydroxy-3-azabicyclo[3.1.0]hex-3-yl]-4-oxo-N-[(2R)-1,1,1-trifluorobutan-2-yl]-1,4-dihydro-1,8-naphthyridine-3-carboxamide]
–	80.0	C[C@H](NC(=O)c1cn(-c2c(F)cccc2F)c2nc(N3CC4CC4(O)C3)ccc2c1=O)C(F)(F)F (single isomer, unassigned) [Example 313]
90.5	–	O=C(NC12CC3CC(CC(C3)C1)C2)c1cn(-c2ccc(F)cc2F)c2nc(N3CC(F)(F)CCC3=O)ccc2c1=O [Example 171]
98	–	O=C(NC(c1c(F)cccc1F)C(F)(F)F)c1cn(-c2ccc(F)cc2F)c2nc(N3C[C@@H](O)CC3=O)ccc2c1=O (single isomer, unassigned) [Example 245]
–	100.0	O=C(NC(c1c(F)cccc1F)C(F)(F)F)c1cn(-c2ccc(F)cc2F)c2nc(N3CCCC(O)C3=O)ccc2c1=O (single isomer, unassigned) [Example 251, 1-(2,4-Difluorophenyl)-N-[1-(2,6-difluorophenyl)-2,2,2-trifluoroethyl]-7-[3-hydroxy-2-oxopiperidin-1-yl]-4-oxo-1,4-dihydro-1,8-naphthyridine-3-carboxamide]
93.7	–	O=C(NC(c1c(F)cccc1F)C(F)(F)F)c1cn(-c2ccc(F)cc2F)c2nc(N3C[C@@H](O)CC3=O)ccc2c1=O (mixture of isomers) [Example 244, 1-(2,4-Difluorophenyl)-N-[1-(2,6-difluorophenyl)-2,2,2-trifluoroethyl]-7-[(4S)-4-hydroxy-2-oxopyrrolidin-1-yl]-4-oxo-1,4-dihydro-1,8-naphthyridine-3-carboxamide]
100	–	CN(C)c1ccc2c(=O)c(C(=O)NC(c3ccc(F)cc3)C(F)(F)F)cn(-c3ccc(F)cc3F)c2n1 (racemic) [Example 139, rac-1-(2,4-Difluorophenyl)-7-(dimethylamino)-4-oxo-N-[2,2,2-trifluoro-1-(4-fluorophenyl)ethyl]-1,4-dihydro-1,8-naphthyridine-3-carboxamide]
97.5	–	O=C(NC1(C(F)(F)F)CC1)c1cn(-c2ccc(F)cc2F)c2nc(N3CC[C@H](F)C3)ccc2c1=O [Example 68, 1-(2,4-Difluorophenyl)-7-[(3S)-3-fluoropyrrolidin-1-yl]-4-oxo-N-[1-(trifluormethyl)cyclopropyl]-1,4-dihydro-1,8-naphthyridine-3-carboxamide]
